# Experimental data reported in article PMC5520693.
# Results are given in words; binding and its absence hold for the method and conditions named. Binding seen in cells or lysates may run through a third protein. Some entries that bind do so weakly or less than the wild type. For some of these results: Tags and fused reporters may be left off the sequences shown.
# B1: HA-tagged TRIM45 (tripartite motif-containing protein 45) (protein, UniProt Q9H8W5 1-580)
# chain: MSENRKPLLGFVSKLTSGTALGNSGKTHCPLCLGLFKAPRLLPCLHTVCTTCLEQLEPFSVVDIRGGDSDTSSEGSIFQELKPRSLQSQIGILCPVCDAQVDLPMGGVKALTIDHLAVNDVMLESLRGEGQGLVCDLCNDREVEKRCQTCKANLCHFCCQAHRRQKKTTYHTMVDLKDLKGYSRIGKPILCPVHPAEELRLFCEFCDRPVCQDCVVGEHREHPCDFTSNVIHKHGDSVWELLKGTQPHVEALEEALAQIHIINSALQKRVEAVAADVRTFSEGYIKAIEEHRDKLLKQLEDIRAQKENSLQLQKAQLEQLLADMRTGVEFTEHLLTSGSDLEILITKRVVVERLRKLNKVQYSTRPGVNDKIRFCPQEKAGQCRGYEIYGTINTKEVDPAKCVLQGEDLHRAREKQTASFTLLCKDAAGEIMGRGGDNVQVAVVPKDKKDSPVRTMVQDNKDGTYYISYTPKEPGVYTVWVCIKEQHVQGSPFTVMVRRKHRPHSGVFHCCTFCSSGGQKTARCACGGTMPGGYLGCGHGHKGHPGHPHWSCCGKFNEKSECTWTGGQSAPRSLLRTVAL
# B2: endogenous TRIM45 (protein, UniProt Q9H8W5 1-580)
# chain: B1 chain
# B3: Flag-TRIM45 (in 293T) (protein, UniProt Q9H8W5 1-580)
# chain: B1 chain
# Experiments:
# [1] = target: Flag-tagged p53 (UniProt P04637); assay: co-IP; U87 cells transfected with Flag-p53 and HA-TRIM45; lysates immunoprecipitated with anti-Flag beads, immunoblotted with anti-HA; low-salt lysis buffer (50 mM HEPES, 150 mM NaCl, 1% Triton X-100)
# [2] = target: endogenous p53 (human (endogenous in U87)) (UniProt P04637); assay: co-IP; U87 cell extracts, endogenous proteins; immunoprecipitated with anti-p53 antibody or IgG, immunoblotted with anti-TRIM45
# [3] = target: HA-p53 (100–393) (UniProt P04637); assay: co-IP; 293T cells transfected with Flag-TRIM45 and HA-p53 or HA-tagged p53 deletion mutants, treated with 10 uM MG132; immunoprecipitated with anti-HA beads, immunoblotted with anti-Flag
# [4] = target: HA-p53 (1–300) (UniProt P04637); assay: as above
binder,measurement,setting,value
B1,binding,[1],binds
B2,binding,[2],binds
B3,binding,[3],binds
same,binding,[4],no binding
